# “And” between values parts separate entries of the source, which are not always exact repeats. Identical values can stand only once. This list was built around the results that the source calls inconclusive (neither active nor inactive); the mix of calls is not that of the screen. For some of these results: A potency beside an inconclusive call is a rough fit, not a confirmed value. A structure can be active in one record and inactive in another. The source made the active and inactive calls. Calls come from the whole dose curve; as a rule, active = well fitted curve in the direction sought with a large enough effect; inconclusive = small, poorly fitted or top-dose-only effect, or another doubt; inactive = no such curve, though single readings can be large; an effect the other way counts as inactive or inconclusive.
# What was measured:
# MKL-1 = assay: qHTS assay to identify novel small-molecules to repurpose for Merkel cell carcinoma treatment (AID 1296009); conditions: MCC and control cell lines, CellTiter-Glo viability, 72 h; series mostly up to 46 µM; note: nearly all actives have a fitted effect of over 60% in size
# How it was run: (§1)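 Cell viability measured by CellTiter-Glo following 72 hr compound treatment at 37 degree celsius, with NPC and MIPE libraries tested in 8- and 11-point concentration series.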
# MKL-2 = assay: as above; conditions: MCC and control cell lines, CellTiter-Glo viability, 72 h; activity change, negative = cytotoxicity: at 46 µM (top of the series)
# How it was run: as §1
# WaGa = assay: as above; conditions: MCC and control cell lines, CellTiter-Glo viability, 72 h; series mostly up to 46 µM
# How it was run: as §1
# UISO = assay: as above; conditions: MCC and control cell lines, CellTiter-Glo viability, 72 h; series mostly up to 46 µM
# How it was run: as §1
# MCC-13 = assay: as above; conditions: MCC and control cell lines, CellTiter-Glo viability, 72 h; series mostly up to 46 µM
# How it was run: as §1
# MCC-26 = assay: as above; conditions: MCC and control cell lines, CellTiter-Glo viability, 72 h; series mostly up to 46 µM
# How it was run: as §1
# CAOV3 = assay: Primary qHTS to identify gynecologic anti-cancer compounds using libraries of approved drugs and bioactive compounds (AID 1345084); conditions: Gynecologic cancer cell panel viability, ATPlite luminescence, 48 h; series mostly up to 57.5 µM; note: nearly all actives have a fitted effect of over 55% in size
# How it was run: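 Cells, 1,000 per well, plated 16 h, then exposed 48 h at 37 C to compounds. Viability by ATPlite luminescence after 15 min at room temperature.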
# % is set by controls: 0 for no effect and ±100 for the full control effect; potency is the fitted concentration of half-maximal effect; tags give direction and shape of the fitted curve.
smiles,measurement,setting,value
COc1nc(N)nc2c1ncn2[C@@H]1O[C@H](CO)[C@@H](O)[C@@H]1O,Potency,MKL-1,inactive
same,Potency,MKL-2,"inconclusive: 16.6 µM [inhibitor, partial curve]"
same,Potency,WaGa,active: 18.7 µM
CCOC(=O)[C@@H](N)CCC(=O)N[C@@H](CSCc1ccccc1)C(=O)N[C@@H](C(=O)OCC)c1ccccc1,Potency,MKL-1,"inconclusive: 33.2 µM [inhibitor, single point]"
same,Potency,MKL-2,"inconclusive: 33.2 µM [inhibitor, single point]"
same,Potency,UISO,inactive
CC(c1cc2ccccc2s1)N(O)C(N)=O (stereo unspecified),Potency,MCC-13,inactive
same,Potency,WaGa,"inconclusive: 0.105 µM [inhibitor, partial curve]"
CCN1CCCC1CNC(=O)c1cc(S(N)(=O)=O)ccc1OC (stereo unspecified),Potency,MKL-1,inactive
C[C@H]1COc2c(N3CCN(C)CC3)c(F)cc3c(=O)c(C(=O)O)cn1c23,Potency,MCC-26,inactive
CCCCn1c(=O)n(Cc2ccccc2F)c(=O)c2[nH]c(Cc3ccc(NC(C)=O)cc3)nc21,Potency,MCC-26,inactive
same,Potency,MKL-2,inactive
CC(C)(C)[C@H](NC(=O)c1ccc(N)c(Cl)c1)C(=O)N1CCC[C@@H]1C(=O)N[C@H](C#N)CC(=O)O,"activity change, negative = cytotoxicity",MCC-26,inactive: -4.4% [at 4.84 µM]
same,Potency,MKL-2,"inconclusive: 0.148 µM [inhibitor, partial curve, poor fit]"
COc1cc2nc(N(C)CCCNC(=O)C3CCCO3)nc(N)c2cc1OC (stereo unspecified),Potency,MCC-13,inactive
same,Potency,CAOV3,inactive
CC[C@H](CC[C@@H](C)[C@H]1CC[C@H]2[C@@H]3CC=C4C[C@@H](O)CC[C@]4(C)[C@@H]3CC[C@]12C)C(C)C,Potency,MKL-1,inactive
C[C@@H]1[C@H](C)CC[C@]2(C(=O)O)CC[C@]3(C)C(=CC[C@@H]4[C@@]5(C)CC[C@H](O)C(C)(C)[C@H]5CC[C@]43C)[C@@H]12,Potency,MKL-1,"inconclusive: 67.9 µM [inhibitor, single point]"
same,Potency,UISO,"inconclusive: 17.1 µM [inhibitor, full curve]"
same,Potency,WaGa,"inconclusive: 19.1 µM [inhibitor, full curve]"
CC(Cc1ccc(O)c(O)c1)(NN)C(=O)O (stereo unspecified),Potency,MKL-2,"inconclusive: 37.2 µM [inhibitor, single point]"
CCN(CC)CCOc1ccc(Nc2ncc3cc(-c4c(Cl)cccc4Cl)c(=O)n(C)c3n2)cc1,Potency,MKL-2,active: 5.26 µM
same,Potency,UISO,active: 5.26 µM
same,Potency,WaGa,active: 2.96 µM
Cc1cnc(Nc2ccc(N3CCN(C)CC3)cc2)nc1Nc1cccc(S(=O)(=O)NC(C)(C)C)c1,Potency,MKL-2,active: 10.5 µM
same,Potency,UISO,"inconclusive: 2.64 µM [inhibitor, full curve]"
CCOC(=O)c1ccc(C#Cc2ccc3c(c2)C(C)(C)CCS3)nc1,Potency,MKL-2,"inconclusive: 18.8 µM [inhibitor, single point] and inconclusive: 33.2 µM [inhibitor, single point]"
same,Potency,UISO,"inconclusive: 21.1 µM [inhibitor, single point]"
same,Potency,WaGa,"inconclusive: 29.9 µM [inhibitor, single point] and inactive"
COc1cc(CNC(=O)CCCCC=CC(C)C)ccc1O,Potency,MKL-2,"inconclusive: 9.35 µM [inhibitor, full curve]"
CCc1cc(C(C)=NOCc2ccc(C3CCCCC3)c(C(F)(F)F)c2)ccc1CN1CC(C(=O)O)C1,Potency,MKL-2,active: 6.62 µM
same,Potency,UISO,"inconclusive: 37.2 µM [inhibitor, single point]"
COc1cc2ncnc(Nc3ccc(F)c(Cl)c3)c2cc1NC(=O)C=CCN1CCCCC1,Potency,MKL-1,"inconclusive: 16.6 µM [inhibitor, partial curve]"
same,Potency,UISO,"inconclusive: 13.2 µM [inhibitor, partial curve]"
same,Potency,WaGa,"inconclusive: 13.2 µM [inhibitor, partial curve]"
COC1CCC(C(=O)c2ccc3nc4c(cc3c2)CCCO4)CC1 (stereo unspecified),Potency,MKL-2,inactive
same,Potency,UISO,"inconclusive: 10.5 µM [inhibitor, full curve]"
NC(=NCc1ccccc1)NC(=O)c1nc(Cl)c(N)nc1N,Potency,MKL-2,"inconclusive: 16.6 µM [inhibitor, partial curve]"
same,Potency,UISO,inactive
same,Potency,WaGa,inactive
CC(C)[N+]1(C)[C@@H]2CC[C@H]1CC(OC(=O)C(CO)c1ccccc1)C2 (stereo partly specified),Potency,MKL-2,"inconclusive: 14.8 µM [inhibitor, partial curve]"
NCC(=O)Nc1ccc(-n2nc(C(F)(F)F)cc2-c2ccc3c(ccc4ccccc43)c2)cc1,Potency,MKL-1,inactive
same,Potency,UISO,"inconclusive: 10.5 µM [inhibitor, full curve]"
same,Potency,WaGa,"inconclusive: 8.33 µM [inhibitor, full curve]"
CCOC(=O)C(C)Oc1cccc2c(=O)n(CC(=O)Nc3ccc4c(c3)OCCO4)ccc12 (stereo unspecified),Potency,MKL-2,"inconclusive: 10.5 µM [inhibitor, single point]"
COc1cc2c(cc1OC)[C@@H]1Cc3ccc(OC)c(OC)c3CN1CC2,Potency,MKL-2,active: 18.7 µM
CC(NCCc1ccc(O)cc1)C(O)c1ccc(O)cc1 (stereo unspecified),Potency,MKL-1,inactive
same,Potency,WaGa,inactive
O=c1ncn2nc(Sc3ccc(F)cc3F)ccc2c1-c1c(Cl)cccc1Cl,Potency,MKL-2,inactive
same,Potency,UISO,"inconclusive: 23.5 µM [inhibitor, single point]"
same,Potency,WaGa,"inconclusive: 18.7 µM [inhibitor, partial curve, poor fit]"
CC(=O)NCCC(=O)N[C@@H](CCC(N)=O)C(=O)N[C@@H](CO)C(=O)N[C@@H](CCC(N)=O)C(=O)N[C@@H](CCC(N)=O)C(=O)N[C@H](C(=O)N[C@@H](Cc1ccccc1)C(=O)N[C@]1(C)CCCCCCC=CCCC[C@@](C)(C(=O)N[C@@H](CCC(N)=O)C(=O)N[C@@H](CC(N)=O)C(N)=O)NC(=O)[C@H](CC(C)C)NC(=O)[C@H](CC(C)C)NC(=O)[C@@H](CCCNC(=N)N)NC(=O)[C@H](Cc2c[nH]c3ccccc23)NC(=O)[C@H](CC(C)C)NC(=O)[C@H](CC(N)=O)NC1=O)[C@H](C)O,Potency,MKL-2,"inconclusive: 16.6 µM [inhibitor, single point]"
same,Potency,UISO,inactive
N#CC(=C1Nc2ccccc2S1)c1ccnc(OCc2ccc(CN3CCOCC3)cc2)n1,Potency,MKL-2,active: 0.132 µM
same,Potency,UISO,active: 1.48 µM
CCOCC(O)COc1ccc(NC(=O)CC[S+](C)C)cc1 (stereo unspecified),Potency,MKL-2,inactive
NC(N)=NC(=O)c1nc(Cl)c(N)nc1N,"activity change, negative = cytotoxicity",MKL-2,inconclusive: -38% [inhibitor]
COc1cc2ncnc(Nc3cc(Br)c(O)c(Br)c3)c2cc1OC,Potency,MKL-2,"inconclusive: 18.7 µM [inhibitor, partial curve]"
same,Potency,UISO,"inconclusive: 6.62 µM [inhibitor, partial curve, poor fit]"
C[C@@]12C[C@@]3(O)O[C@@H](O1)[C@]1(COC(=O)c4ccccc4)[C@@H]3C[C@@]12O[C@@H]1O[C@H](CO)[C@@H](O)[C@H](O)[C@@H]1O,Potency,MKL-1,inactive
same,Potency,UISO,inactive
Cc1cccc(CN2CCN(C(c3ccccc3)c3ccc(Cl)cc3)CC2)c1 (stereo unspecified),Potency,MKL-2,"inconclusive: 33.5 µM [inhibitor, single point]"
same,Potency,UISO,inactive
C=C1c2cccc(O)c2C(O)=C2C(=O)[C@@]3(O)C(O)=C(C(N)=O)C(=O)[C@@H](N(C)C)[C@@H]3[C@@H](O)[C@H]12,Potency,MKL-2,"inconclusive: 2.35 µM [inhibitor, partial curve, poor fit]"
CC[C@H](C)C(=O)O[C@H]1C[C@H](O)C=C2C=C[C@H](C)[C@H](CC[C@@H](O)C[C@@H](O)CC(=O)O)[C@H]21,Potency,MKL-2,inactive
CC1CNc2c(cccc2S(=O)(=O)N[C@@H](CCCN=C(N)N)C(=O)N2CC[C@@H](C)C[C@@H]2C(=O)O)C1 (stereo partly specified),Potency,MKL-1,active: 16.6 µM
same,Potency,WaGa,active: 4.69 µM
C[C@@H](O)[C@H]1C(=O)N2C(C(=O)OCOC(=O)C(C)(C)C)=C(SC3CN(C4=NCCS4)C3)[C@H](C)[C@H]12,"activity change, negative = cytotoxicity",MKL-2,inconclusive: -33.4% [inhibitor]
COC(=O)[C@H](c1ccccc1Cl)N1CCc2sccc2C1,Potency,MKL-2,inactive
COc1c(Cl)cc2c([nH]c3cnccc32)c1NC(=O)c1cccnc1C,Potency,MKL-1,inactive
same,Potency,WaGa,inactive
CCC(C)(C)c1ccc(CC(C)CN2C[C@@H](C)O[C@@H](C)C2)cc1 (stereo partly specified),Potency,MKL-2,inactive
CCCCOCCOc1nc(-c2ccc(C(=O)O)c(F)c2)sc1C,Potency,MKL-2,inactive
CNC[C@@H](O)[C@@H](O)[C@H](O)[C@H](O)CO,Potency,MKL-1,inactive
same,Potency,WaGa,inactive
C[C@]12CC[C@@H]3c4ccc(O)cc4CC[C@H]3[C@H]1[C@@H](O)[C@@H](O)[C@H]2O,Potency,MKL-2,"inconclusive: 37.2 µM [inhibitor, single point]"
OC[C@@H](O)[C@@H](O)[C@H](O)[C@@H](O)CO,Potency,MKL-2,inactive
Nc1ncn([C@H]2C[C@H](O)[C@@H](CO)O2)c(=O)n1,Potency,MKL-1,inactive
same,Potency,WaGa,"inconclusive: 1.88 µM [inhibitor, full curve] and inactive"
CC(C)(Oc1ccc(C2CC2(Cl)Cl)cc1)C(=O)O (stereo unspecified),Potency,MKL-2,inactive
same,Potency,UISO,inactive
same,Potency,WaGa,inactive
CCCCCCCCCCCCCCCC(=O)O[C@H]1[C@@H](O)[C@@H](O)[C@@H]([C@H](NC(=O)[C@@H]2C[C@@H](CCC)CN2C)[C@H](C)Cl)O[C@@H]1SC,Potency,MKL-2,"inconclusive: 37.2 µM [inhibitor, single point]"
CC(C)(Sc1ccc(CCN(CCCCC2CCCCC2)C(=O)NC2CCCCC2)cc1)C(=O)O,Potency,MKL-1,"inconclusive: 33.2 µM [inhibitor, single point]"
same,Potency,WaGa,"inconclusive: 33.2 µM [inhibitor, single point]"
same,Potency,CAOV3,"inconclusive: 8.91 µM [rising, full curve, poor fit]"
O=S(=O)(O)CCS,Potency,MKL-2,"inconclusive: 0.418 µM [inhibitor, full curve, poor fit]"
same,Potency,CAOV3,inactive
N[C@@H](C(=O)N[C@@H]1C(=O)N2C(C(=O)O)=C(Cl)CS[C@H]12)c1ccccc1,Potency,UISO,inactive
CC(C)c1nc(CN(C)C(=O)N[C@H](C(=O)N[C@@H](Cc2ccccc2)C[C@H](O)[C@H](Cc2ccccc2)NC(=O)OCc2cncs2)C(C)C)cs1,Potency,UISO,"inconclusive: 26.4 µM [inhibitor, single point] and inactive"
same,Potency,WaGa,"inconclusive: 33.5 µM [inhibitor, single point]"
